Assay results reported in publication PMC4931317, “UtpA and UtpB chaperone nascent pre-ribosomal RNA and U3 snoRNA to initiate eukaryotic ribosome assembly” (Nature Communications, 2016).
These are yes or no findings as the source states them, for the method shown. In cells and extracts the contact can be indirect. Some binding calls cover weakened binding; strength is not graded here. For part of these data: Where a sequence is shown, tags or fusion partners need not be part of it.

Protein sequences, listed by entry. Tags and fused reporters are not part of them.
UniProt P42945: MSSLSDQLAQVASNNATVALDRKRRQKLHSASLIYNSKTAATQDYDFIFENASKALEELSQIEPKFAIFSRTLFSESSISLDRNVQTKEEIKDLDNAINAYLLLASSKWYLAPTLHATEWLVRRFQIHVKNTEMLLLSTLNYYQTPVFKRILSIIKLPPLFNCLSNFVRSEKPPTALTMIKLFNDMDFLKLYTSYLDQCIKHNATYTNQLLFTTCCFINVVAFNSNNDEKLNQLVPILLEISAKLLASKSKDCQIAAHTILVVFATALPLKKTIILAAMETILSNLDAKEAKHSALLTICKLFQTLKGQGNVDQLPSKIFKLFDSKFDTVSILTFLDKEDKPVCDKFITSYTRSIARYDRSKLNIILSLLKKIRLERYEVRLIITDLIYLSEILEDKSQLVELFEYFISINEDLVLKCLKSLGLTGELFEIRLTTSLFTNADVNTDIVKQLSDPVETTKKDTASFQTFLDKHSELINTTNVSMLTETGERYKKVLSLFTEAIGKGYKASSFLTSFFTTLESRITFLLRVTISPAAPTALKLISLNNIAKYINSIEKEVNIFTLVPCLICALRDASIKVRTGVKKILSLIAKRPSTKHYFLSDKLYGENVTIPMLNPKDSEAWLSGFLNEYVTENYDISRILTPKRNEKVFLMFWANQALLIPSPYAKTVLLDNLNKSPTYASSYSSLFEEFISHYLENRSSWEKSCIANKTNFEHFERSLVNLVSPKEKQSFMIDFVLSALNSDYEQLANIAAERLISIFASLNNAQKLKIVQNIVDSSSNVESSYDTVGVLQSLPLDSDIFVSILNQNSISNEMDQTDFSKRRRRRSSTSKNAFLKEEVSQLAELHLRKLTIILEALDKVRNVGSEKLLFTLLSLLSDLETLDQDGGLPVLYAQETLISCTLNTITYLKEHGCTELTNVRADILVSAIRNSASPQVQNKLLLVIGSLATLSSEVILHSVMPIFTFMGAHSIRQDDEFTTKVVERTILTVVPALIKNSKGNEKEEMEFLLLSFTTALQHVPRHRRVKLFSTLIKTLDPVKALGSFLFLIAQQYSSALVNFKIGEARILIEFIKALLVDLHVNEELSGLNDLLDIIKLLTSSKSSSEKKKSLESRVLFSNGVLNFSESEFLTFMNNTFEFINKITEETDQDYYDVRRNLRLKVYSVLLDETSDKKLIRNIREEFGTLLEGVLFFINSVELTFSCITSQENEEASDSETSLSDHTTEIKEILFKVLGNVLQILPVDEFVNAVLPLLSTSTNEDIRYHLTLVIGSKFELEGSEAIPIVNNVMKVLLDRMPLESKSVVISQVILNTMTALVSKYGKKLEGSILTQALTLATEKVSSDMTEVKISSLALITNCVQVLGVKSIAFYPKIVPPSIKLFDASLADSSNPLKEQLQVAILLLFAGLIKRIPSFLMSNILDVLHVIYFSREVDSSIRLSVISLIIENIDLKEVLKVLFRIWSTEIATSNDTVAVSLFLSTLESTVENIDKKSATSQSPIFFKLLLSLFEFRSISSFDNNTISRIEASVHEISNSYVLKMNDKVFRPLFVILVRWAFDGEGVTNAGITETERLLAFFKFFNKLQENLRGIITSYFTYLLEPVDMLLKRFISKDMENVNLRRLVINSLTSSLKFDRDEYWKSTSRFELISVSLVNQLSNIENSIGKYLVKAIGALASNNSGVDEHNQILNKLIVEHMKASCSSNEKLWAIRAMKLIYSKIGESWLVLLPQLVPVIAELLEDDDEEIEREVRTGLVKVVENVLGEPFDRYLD

T1: Utp21-3myc-TEV-mCherry-Flag (S. cerevisiae) (UniProt Q06078)
T1 sequence: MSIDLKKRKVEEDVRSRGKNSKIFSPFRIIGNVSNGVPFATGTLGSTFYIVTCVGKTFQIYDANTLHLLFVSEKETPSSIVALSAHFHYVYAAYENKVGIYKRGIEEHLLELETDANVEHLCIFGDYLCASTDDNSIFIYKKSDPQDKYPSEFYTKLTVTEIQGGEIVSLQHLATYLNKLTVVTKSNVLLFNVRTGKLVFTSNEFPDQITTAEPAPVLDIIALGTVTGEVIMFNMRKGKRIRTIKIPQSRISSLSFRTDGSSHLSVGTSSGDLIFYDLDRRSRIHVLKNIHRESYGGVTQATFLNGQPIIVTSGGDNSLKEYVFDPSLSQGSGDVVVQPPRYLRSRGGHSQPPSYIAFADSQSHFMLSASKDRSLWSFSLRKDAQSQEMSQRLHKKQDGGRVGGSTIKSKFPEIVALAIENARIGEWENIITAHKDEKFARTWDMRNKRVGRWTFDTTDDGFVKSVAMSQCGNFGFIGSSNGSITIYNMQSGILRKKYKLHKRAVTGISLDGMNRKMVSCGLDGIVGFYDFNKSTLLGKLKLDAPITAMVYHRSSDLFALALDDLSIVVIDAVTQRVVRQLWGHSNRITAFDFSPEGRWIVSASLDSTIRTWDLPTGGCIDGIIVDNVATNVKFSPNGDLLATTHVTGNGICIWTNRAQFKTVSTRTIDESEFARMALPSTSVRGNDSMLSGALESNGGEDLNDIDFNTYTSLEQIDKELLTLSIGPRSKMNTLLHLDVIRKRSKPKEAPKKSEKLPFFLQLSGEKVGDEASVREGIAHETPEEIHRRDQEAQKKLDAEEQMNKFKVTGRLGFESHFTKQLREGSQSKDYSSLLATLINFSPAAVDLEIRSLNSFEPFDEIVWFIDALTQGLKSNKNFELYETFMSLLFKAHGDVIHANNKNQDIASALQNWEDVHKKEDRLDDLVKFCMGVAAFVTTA


Target: T1, Utp21-3myc-TEV-mCherry-Flag (S. cerevisiae)
Test: pull-down + SEC; endogenous UtpA-independent UtpB from yeast lysate captured via Utp21-mCherry on anti-mCherry nanobody sepharose (buffer K: 100 mM CHES-NaOH pH 9, 300 mM potassium acetate, 5 mM EDTA, 1 mM DTT), TEV elution, Superose 6 Increase; peak fraction on SDS-PAGE

| binding | Binder |
| --- | --- |
| binds | Utp1 (Pwp2), endogenous (protein, UniProt P25635 1-923) MKSDFKFSNLLGTVYRQGNITFSDDGKQLLSPVGNRVSVFDLINNKSFTFEYEHRKNIAAIDLNKQGTLLISIDEDGRAILVNFKARNVLHHFNFKEKCSAVKFSPDGRLFALASGRFLQIWKTPDVNKDRQFAPFVRHRVHAGHFQDITSLTWSQDSRFILTTSKDLSAKIWSVDSEEKNLAATTFNGHRDYVMGAFFSHDQEKIYTVSKDGAVFVWEFTKRPSDDDDNESEDDDKQEEVDISKYSWRITKKHFFYANQAKVKCVTFHPATRLLAVGFTSGEFRLYDLPDFTLIQQLSMGQNPVNTVSVNQTGEWLAFGSSKLGQLLVYEWQSESYILKQQGHFDSTNSLAYSPDGSRVVTASEDGKIKVWDITSGFCLATFEEHTSSVTAVQFAKRGQVMFSSSLDGTVRAWDLIRYRNFRTFTGTERIQFNCLAVDPSGEVVCAGSLDNFDIHVWSVQTGQLLDALSGHEGPVSCLSFSQENSVLASASWDKTIRIWSIFGRSQQVEPIEVYSDVLALSMRPDGKEVAVSTLKGQISIFNIEDAKQVGNIDCRKDIISGRFNQDRFTAKNSERSKFFTTIHYSFDGMAIVAGGNNNSICLYDVPNEVLLKRFIVSRNMALNGTLEFLNSKKMTEAGSLDLIDDAGENSDLEDRIDNSLPGSQRGGDLSTRKMRPEVRVTSVQFSPTANAFAAASTEGLLIYSTNDTILFDPFDLDVDVTPHSTVEALREKQFLNALVMAFRLNEEYLINKVYEAIPIKEIPLVASNIPAIYLPRILKFIGDFAIESQHIEFNLIWIKALLSASGGYINEHKYLFSTAMRSIQRFIVRVAKEVVNTTTDNKYTYRFLVSTDGSMEDGAADDDEVLLKDDADEDNEENEENDVVMESDDEEGWIGFNGKDNKLPLSNENDSSDEEENEKELP |
| binds | Utp13, endogenous (protein, UniProt Q05946 1-817) MDLKTSYKGISLNPIYAGSSAVATVSENGKILATPVLDEINIIDLTPGSRKILHKISNEDEQEITALKLTPDGQYLTYVSQAQLLKIFHLKTGKVVRSMKISSPSYILDADSTSTLLAVGGTDGSIIVVDIENGYITHSFKGHGGTISSLKFYGQLNSKIWLLASGDTNGMVKVWDLVKRKCLHTLQEHTSAVRGLDIIEVPDNDEPSLNLLSGGRDDIINLWDFNMKKKCKLLKTLPVNQQVESCGFLKDGDGKRIIYTAGGDAIFQLIDSESGSVLKRTNKPIEELFIIGVLPILSNSQMFLVLSDQTLQLINVEEDLKNDEDTIQVTSSIAGNHGIIADMRYVGPELNKLALATNSPSLRIIPVPDLSGPEASLPLDVEIYEGHEDLLNSLDATEDGLWIATASKDNTAIVWRYNENSCKFDIYAKYIGHSAAVTAVGLPNIVSKGYPEFLLTASNDLTIKKWIIPKPTASMDVQIIKVSEYTRHAHEKDINALSVSPNDSIFATASYDKTCKIWNLENGELEATLANHKRGLWDVSFCQYDKLLATSSGDKTVKIWSLDTFSVMKTLEGHTNAVQRCSFINKQKQLISCGADGLIKIWDCSSGECLKTLDGHNNRLWALSTMNDGDMIVSADADGVFQFWKDCTEQEIEEEQEKAKLQVEQEQSLQNYMSKGDWTNAFLLAMTLDHPMRLFNVLKRALGESRSRQDTEEGKIEVIFNEELDQAISILNDEQLILLMKRCRDWNTNAKTHTIAQRTIRCILMHHNIAKLSEIPGMVKIVDAIIPYTQRHFTRVDNLVEQSYILDYALVEMDKLF |
| binds | Utp12 (Dip2), endogenous (protein, UniProt Q12220 1-943) MVKSYQRFEQAAAFGVIASNANCVWIPASSGNSNGSGPGQLITSALEDVNIWDIKTGDLVSKLSDGLPPGASDARGAKPAECTYLEAHKDTDLLAVGYADGVIKVWDLMSKTVLLNFNGHKAAITLLQFDGTGTRLISGSKDSNIIVWDLVGEVGLYKLRSHKDSITGFWCQGEDWLISTSKDGMIKLWDLKTHQCIETHIAHTGECWGLAVKDDLLITTGTDSQVKIWKLDIENDKMGGKLTEMGIFEKQSKQRGLKIEFITNSSDKTSFFYIQNADKTIETFRIRKEEEIARGLKKREKRLKEKGLTEEEIAKSIKESYSSFILHPFQTIRSLYKIKSASWTTVSSSKLELVLTTSSNTIEYYSIPYEKRDPTSPAPLKTHTIELQGQRTDVRSIDISDDNKLLATASNGSLKIWNIKTHKCIRTFECGYALTCKFLPGGLLVILGTRNGELQLFDLASSSLLDTIEDAHDAAIWSLDLTSDGKRLVTGSADKTVKFWDFKVENSLVPGTKNKFLPVLKLHHDTTLELTDDILCVRVSPDDRYLAISLLDNTVKVFFLDSMKFYLSLYGHKLPVLSIDISFDSKMIITSSADKNIKIWGLDFGDCHKSLFAHQDSIMNVKFLPQSHNFFSCSKDAVVKYWDGEKFECIQKLYAHQSEVWALAVATDGGFVVSSSHDHSIRIWEETEDQVFLEEEKEKELEEQYEDTLLTSLEEGNGDDAFKADASGEGVEDEASGVHKQTLESLKAGERLMEALDLGIAEIEGLEAYNRDMKLWQRKKLGEAPIKPQGNAVLIAVNKTPEQYIMDTLLRIRMSQLEDALMVMPFSYVLKFLKFIDTVMQNKTLLHSHLPLICKNLFFIIKFNHKELVSQKNEELKLQINRVKTELRSALKSTEDDLGFNVQGLKFVKQQWNLRHNYEFVDEYDQQEKESNSARKRVFGTVI |
| binds | Utp18, endogenous (protein, UniProt P40362 1-594) MTMATTAMNVSVPPPDEEEQLLAKFVFGDTTDLQENLAKFNADFIFNEQEMDVEDQEDEGSESDNSEEDEAQNGELDHVNNDQLFFVDDGGNEDSQDKNEDTMDVDDEDDSSSDDYSEDSEEAAWIDSDDEKIKVPILVTNKTKKLRTSYNESKINGVHYINRLRSQFEKIYPRPKWVDDESDSELDDEEDDEEEGSNNVINGDINALTKILSTTYNYKDTLSNSKLLPPKKLDIVRLKDANASHPSHSAIQSLSFHPSKPLLLTGGYDKTLRIYHIDGKTNHLVTSLHLVGSPIQTCTFYTSLSNQNQQNIFTAGRRRYMHSWDLSLENLTHSQTAKIEKFSRLYGHESTQRSFENFKVAHLQNSQTNSVHGIVLLQGNNGWINILHSTSGLWLMGCKIEGVITDFCIDYQPISRGKFRTILIAVNAYGEVWEFDLNKNGHVIRRWKDQGGVGITKIQVGGGTTTTCPALQISKIKQNRWLAVGSESGFVNLYDRNNAMTSSTPTPVAALDQLTTTISNLQFSPDGQILCMASRAVKDALRLVHLPSCSVFSNWPTSGTPLGKVTSVAFSPSGGLLAVGNEQGKVRLWKLNHY |

Target: T2, Utp10-3C-GFP (S. cerevisiae, UniProt P42945 1-1769)
T2 construct: Utp10, S. cerevisiae, subunit of UtpA (200 kDa); GFP is joined through a 3C protease site; it holds the protein on the beads in a1-a3 and is cleaved off by 3C on elution, so it is absent in the SEC step and in the DSS cross-linking (a6); also called Utp10-GFP; Utp10-sbp-H14-3C-GFP; source: S. cerevisiae YSK32, C-terminal tag integrated in the genome, endogenous level; captured from lysate on …
Test: pull-down; UtpA held via Utp10-GFP on anti-GFP nanobody sepharose (purified at 200 mM NaCl), then incubated 7 h at 4 °C in buffer with 800 mM NaCl; 3C elution; Coomassie-stained SDS-PAGE

| binding | Binder |
| --- | --- |
| no binding (condition: 800 mM NaCl) | Utp5 (natural protein, S. cerevisiae, UniProt Q04177 1-643, looked up, Utp5, S. cerevisiae, subunit of UtpA; No tag is named for it in either strain; strains are in Supplementary Data 1; source: endogenous, S. cerevisiae YSK32, co-purified with Utp10-GFP; overexpressed (galactose promoter) in S. cerevisiae YSK122, co-purified with Utp15-mCherry) MDSPVLQSAYDPSGQYLCYVTVALDKQRVGVQPTQRATSSGVDTVWNENFLYLEDSKLKVTCLKWVNLASSDTVAIILGMNNGEIWLYSVLANEVTYKFTTGNSYEIKDIDLMGNQLWCIDSSDAFYQFDLLQFKLLQHFRINNCVQLNKLTIVPAGDSVAQLLVASHSISLIDIEEKKVVMTFPGHVSPVSTLQVITNEFFISGAEGDRFLNVYDIHSGMTKCVLVAESDIKELSHSGQADSIAVTTEDGSLEIFVDPLVSSSTKKRGNKSKKSSKKIQIVSKDGRKVPIYNAFINKDLLNVSWLQNATMPYFKNLQWREIPNEYTVEISLNWNNKNKSADRDLHGKDLASATNYVEGNARVTSGDNFKHVDDAIKSWERELTSLEQEQAKPPQANELLTETFGDKLESSTVARISGKKTNLKGSNLKTATTTGTVTVILSQALQSNDHSLLETVLNNRDERVIRDTIFRLKPALAVILLERLAERIARQTHRQGPLNVWVKWCLIIHGGYLVSIPNLMSTLSSLHSTLKRRSDLLPRLLALDARLDCTINKFKTLNYEAGDIHSSEPVVEEDEDDVEYNEELDDAGLIEDGEESYGSEEEEEGDSDNEEEQKHTSSKQDGRLETEQSDGEEEAGYSDVEME |
| no binding (condition: 800 mM NaCl) | Utp8 (natural protein, S. cerevisiae, UniProt P53276 1-713, looked up, Utp8, S. cerevisiae, subunit of UtpA; No tag is named for it in either strain; strains are in Supplementary Data 1; source: endogenous, S. cerevisiae YSK32, co-purified with Utp10-GFP; overexpressed (galactose promoter) in S. cerevisiae YSK122, co-purified with Utp15-mCherry) MPSLSQPFRLATLPKIASLSNFSLQADYVQVADGTFNESTNNITLGISGSSISQYIINPTPKLTFDYPIPSTNIITACNAEKGQANIDGNIEASTDDEANNEKTINTQKKRNVEIWAFGLMVNKGNYTLNVITKALEDTTDTSNDHLSESDIDNKAYTGSDEFLSQYKIKAKAKVMSIKIDTKNSLVIAILQNGLIEIFDFKLTLLHSFDISYDNLKYAKWFTENGTEYVFVLCPLQDDKVCYKLLELTDCGSGESSPIKELSSTIIEGFSFENSKLCYQFGKLYKLNQGKIYIYSLPHCQLQQVIEFPMVDKLSPGDDLISFQPVSVNRVLLTVNNVIYLLDLLHCSTLSQRELTHVKTFQLLKSAVINSEKSHNSKTIAIGISTKNGPNPTSSLEIINIDVGTNTLKDSLGKSFQVGNNDSSVILKPLFDDKDINDKRVKCNDVSGDSSVPVLHCNEVIEKLSALQDNDITSFDDIFFKELKIKEEHYTEKDRYISDPGFLNKVLDLIFGKFSGNDYPKTLTFLLTHPLFPLSRTRNLLSLLRDQPRLFKQAIVTCPNLPLNELLEELFSIRNRELLLDISFRILQDFTRDSIKQEMKKLSKLDVQNFIEFITSGGEDSSPECFNPSQSTQLFQLLSLVLDSIGLFSLEGALLENLTLYIDKQVEIAERNTELWNLIDTKGFQHGFASSTFDNGTSQKRALPTYTMEYLDI |
